This note sets out measurements from the RNAGym collection of RNA variant scans (doi:10.7554/elife.90254).

Read counts are not given, so values of variants with three or more changes are uncertain.

B1: LINE1-full (parent)
chain: UACGUAGGUGGUUUUCCCCUGAUAGUGCUAAGGGGGCCUGGAAGUUUGGACUGGGCAGAGCUCAACACAGCGUGGCAAAGUGGCUGUGGCUAGACUGCCUCUCUGGAUUCCUCGUCACUCAGCAGGGCAUCUCUGAGAGAAAUGCC

In the series the parent is B1. In words: self-cleavage, relative activity (ratio to wild type); higher = more cleavage; in vitro, sequencing; the parent is a self-cleaving ribozyme.
As to UACGUAGGUGGUUUUCCCCUGAUUGUGCUAAGGGGGCCUGGAAGUUUGGACUGGGCAGAGCUCAACACAGCGUGGCAAAGUGGCUGUGGCUAGACUGCCUCUCUGGAUUUCUCGUCACUCAGCAGGGCAUCCCUGAGAGGAAUGCC [A24U C110U U132C A140G], the self-cleavage is 1.55.
As to UACGUAGGUGGUUUUCCCCUGAUUGUGCUAAGGGGGCCUGGAGGUUUGGACUGGGCAGAGCUCAACACAGCGUGGCAAAGUGGCUGUGGCUAGACUGCCCCUCUGGAUUCCUCGUCACUCAGCAGGGCAUCUCUGAGAGAAAUGCC [A24U A43G U100C], the self-cleavage came out at 2.07.
The result for UACGUAGGUGGUUUUCCCCUGAUUGUGCUGAGGGGGCCUGGGAGUUUGGACUGGGCAGAGCACAACACAGCGUGGCAAAGUGGCUGUGGCUAGACUGCCUCUCUGGAUUCCUCGUCACUCAGCAGGGCAUCUCUGAGAGAAAUGCC [A24U A30G A42G U62A] reads 0.
The result for UACGUAGGUGGUUUUCCCCUGAUUGUGCUAAGGGGGCCUGGAAGUUUGGACUGGGCAGAGCUCCACACAGCGGGGCAAAGUGGCUGUGGCUAGACUGCCUCUCUGGAUUCCUCGUCACUCAGCAGGGCAUCUCUGAGAGAAAUGCU [A24U A64C U73G C146U] reads 0.33; that for UACGUAGGUGGUUUUCCCCUGAUGGUGCUAAGGGGGCCUGGAAGUUUGGACUGGGCAGAGCUCAACACAGCGUGGCAAAGUGGCUGUGGCUAGACUGCCUCUCUGGAUUCCUCGCCACUCAGCAGGGCAUCUCUGAGAGAGAUGCC [A24G U115C A141G], 1.77; that for UACGUAGGUGGUUUUCCCCUGAUGGUGCUAAGGGGGCCUGGAAGUUUGGACUGGGCAGAGCUCAACACAGCGUGGCAAAGUGGCAGUGGCUAGACUGCCUCUCUGGAUUCCUCGUCACUCAGCAGGGCACCCCUGAGAGAAAUGCC [A24G U85A U130C U132C], 0.19.
The result for UACGUAGGUGGUUUUCCCCUGAUUGUGCUAAGGGGGCCUGGUAGUUUGGACUGGGCAGAGCUCAACACAGCGUGGCAAAGUGGCUGUGGCUAGACUGCCUCUCUGGAUUCCUCGUCACUCAGCAGGGCAUCUCUGAGAGAAUUGCC [A24U A42U A142U] reads 1.01; that for UACGUAGGUGGUUUUCCCCUGAUUGUGCUAAGGGGGCCUGGAAGUUUGGACUGGGCAGAGCUCAACACGGCGUGGCAAAGUGGCUGUGGCUAGACUGCCUCUCUGGAUUCCCCGUCACUCAGCAGGGCAUCUCUGAGAGAAAUGCC [A24U A69G U112C], 0.31.
In the case of UACGUAGGUGGUUUUCCCCUGAUGGUGCUAAGGGGGCCUGGAAGUUUGGACUGGGCAGAGCUCAACACAGCGUGGCAAAGUGGCUGUGGCAAGACUGCCUCUCUGGAUUCCUCGUCACUCAGCAGGGCAUCUCUGGGGGAAAUGCC [A24G U91A A136G A138G], the self-cleavage came to 0.98.
UACGUAGGUGGUUUUCCCCUGAUUGUGCUAAGGGGGCCUGGAGGUUUGGACUGGGCAGAGCCCAACACAGCGUGGCAAAGUGGCUGUGGCUAGACUGCCUCUCUGGAUUCCUCGUCACUCAGCAGGGCAUCUCUGAGAGAAAUGCC [A24U A43G U62C]: the self-cleavage came to 0.23.
The result for UACGUAGGUGGUUUUCCCCUGAUUGUGCUAUGGGGGCCUGGAAGUUUGGACUGGGCAGAGCUCAACACAGCGUGGCAAUGUGGCUGUGGCUAGACUGCCUCUCUGGAUUCCUCGUCACUCAGCAGGGCAUCUCUGAGUGAAAUGCC [A24U A31U A79U A138U] reads 1.1; that for UACGUAGGUGGUUUUCCCCUGAUGGUGCUAAGGGGGCCUGGAAGUUUGGACUGGGCAGAGCUCAACACAGCGUGGCAAAGUGGCUGUGGCUAGACUGCCUCUCUGGACUCCCCGACACUCAGCAGGGCAUCUCUGAGAGAAAUGCC [A24G U108C U112C U115A], 1.88; that for UACGUAGGUGGUUUUCCCCUGAUUGUGCUAAGGGGGCCUGGAAGCUUGGACUGGGCAGAGCUCAACACAGCGUGGCUAAGUGGCUGUAGCUAGACUGCCUCUCCGGAUUCCUCGUCACUCAGCAGGGCAUCUCUGAGGGAAAUGCC [A24U U45C A77U G88A U104C A138G], 0.15.
The result for UACGUAGGUGGUUUUCCCCUGAUUGUGCUAAGGGGGCCUGGAAGUUUGGACUGGGCAGAGCUCAACACAGCGUGGCAGAGUGGCUGUGGCUAGACUGCCUCUCUGGAUUCCUCGUCACUCAGCAGGGCAUCUCUGAGAGAAAUACC [A24U A78G G144A] reads 1.15; that for UACGUAGGUGGUUUUCCCCUGAUUGUGCUAAGGGGGCCUGGGAGUUUGGACUGGGCAGAGCUCAACACAGCGUGGCAAAGUGGUUGUGGCUAGACUGCCUCUCUGGAUUCCUCGUCACUCAGCAGGGCUUCUCUGAGAGAAAUGCC [A24U A42G C84U A129U], 0.11; that for UACGUAGGUGGUUUUCCCCUGAUGGUGCUAAGGGGGCCUGGAAGUUUGGACUGGGCAGAGCUCAACACAGCGUGGCAAAGUGGCUGUGGCUAGACUGCCCCUCUGGAUUCCCCGUCACUCAGCAGGGCAUCUCUGAGAGAAAUGCC [A24G U100C U112C], 1.48.
The result for UACGUAGGUGGUUUUCCCCUGAUUGUGCUAAGGGGGCCUGGAAGUUUGGACUGGGCAGUGCUCAACACAGCGUGGCAAAGUGGCUGUGGCUAGACUGCCUCUCUGGAUCCCUCGUCACUCAGCAGGGCAUCUCUGAGAGAAAUGCC [A24U A59U U109C] reads 0.74; that for UACGUAGGUGGUUUUCCCCUGAUUGCGCUAAGGGGACCUGGAAGUUCGGACUGGGCAGAGCUCAACACAGCGUGGCAAAGUGGCUGUGGCUAGACUGCCUCUCUGGAUUCCUCGCCACUCAGCAGGGCAUCUCUGAGAGAAAUGCC [A24U U26C G36A U47C U115C], 1.08; that for UACGUAGGUGGUUUUCCCCUGAUUGUGCUAAGGGGGCCUGGAAGUUUGGACUGGGCAGAGCUCAACACAGCGUGGCAAAGUGGCUGUGGCUAGACUGCCUCUCUGGAUUCCUCGUCACUCGGCAGGGCAUCUCUGAGAGAGAUGCC [A24U A121G A141G], 1.79.
Take UACGUAGGUGGUUUUCCCCUGAUUGUGCCAAGGGGGCCUGGAAGUUUGGACUGGGCAGAGCUCUACACAGCGUGGCAAAGUGGCUGUGGCUAGACUGCCUCUCUGGAUUCCUCGUCACUCAGCAGGGCAUCUCUGAGAGAAAUGCC [A24U U29C A64U]: the self-cleavage was determined as 0.54.
The result for UACGUAGGUGGUUUUCCCCUGAUGGUGCUAAGGGGGCCUGGAAGUUUGGACUGGGCAGAGCUCAACACAGCGUGGCAAAGUGGCUGAGGCUAGACUGCCUCUCUGGAUUCCUCGUCACUCAGCAGGGCAUCUCUGGGAGAGAUGCC [A24G U87A A136G A141G] reads 0.13.
The result for UACGUAGGUGGUUUUCCCCUGAUUGUGCUAAGGGGGCCUGGAAGUUUGGACUGGGCAGAGCUCGACACAGUGUGGCAAAGUGGCUGUGGCUAGACUGCCUCUCUGGAAUCCUCGUCACUCAGCAGGGCAUCUCUGAGAGAAAUGCC [A24U A64G C71U U108A] reads 0.15.
The result for UACGUAGGUGGUUUUCCCCUGAUUGUGCUAAGGAGGCCUGGAAGUUUGGACUGGGCAGAGCUCAACACAGCGUGGCAAAGUGGCUGUGGCUAGACUGCCUCUCUGGAUUCCUCGUCACUCAGCAAGGCAUCUCUGAGAGGAAUGCC [A24U G34A G125A A140G] reads 1.11; that for UACGUAGGUGGUUUUCCCCUGAUUGUGCUAAGGGGGCCUGGAAGUUUGGACUGGGCAGAGCUCAACACAGCAUGGCAAAGUGGCUGUGGCCAGACUGCCUCUCUGGAUUCCUCGUCACUCAGCAGGGCAUCACUGGGAGAAAUGCC [A24U G72A U91C U132A A136G], 0.92.
With UACGUAGGUGGUUUUCCCCUGAUUGUGCUAAGGGGGCCUGGAAGUUUGGACUGGGCAGUGCUCAACACAGCGUGGCAAGGUGGCUGUGACUAGACUGCCUCUCCGGAUUCCUCGUCACUCAGCAGGGCAUCUCUGGGAGAAGUGCC [A24U A59U A79G G89A U104C A136G A142G], the self-cleavage is 0.15.
The result for UACGUAGGUGGUUUUCCCCUGAUUGUGCUAAGGGGGCCUGGGAGUUUGGACUGGGCAGAGCUCAACACAGCGUGGCAAAGUGGCUGCGGCUAGACUGCCUCUCUGGAUUCCUCGUCACUCAGCAGGGCAUCCCUGAGGGAAAUGCC [A24U A42G U87C U132C A138G] reads 0.46; that for UACGUAGGUGGUUUUCCCCUGAUUGUGCUAAGGGGGCCUGGAAGUUUAGACUGGGCAGAGCUCAACACAGCGUGGCAAAGAGGCUGUGGCUUGACUGCCUCUCUGGAUUCCUCGUCACUCAGCAGGGCAUCUCUGAGAGAAAUGCC [A24U G48A U81A A92U], 0.45.
The result for UACGUAGGUGGUUUUCCCCUGAUUGUGCUAAGGGGGCCUGUAAGUUUGGACUGGGCAGAGCUCAACACAGCGUGGCAAAGUGGCUGUGGCUAGACUGCCUCUCAGGAUUCCUCGUCACUCAGCAGGGCAUCUCUGAGAGAAAUGCC [A24U G41U U104A] reads 1.19; that for UACGUAGGUGGUUUUCCCCUGAUGGUGCUAAGGGGGCCUGGAAGUUUGGACUGGGCAGAGCUCAACACAGCGUGGCAAAGUGGCUGUGGCUAGACUGCCUCUCUGGAAUCCUCGUCACUCAGCAGGGCAUCUCUGAGAGAAACGCC [A24G U108A U143C], 1.03; that for UACGUAGGUGGUUUUCCCCUGAUUGUGCUAAGGGGGCCUGGAAGUUUGGACUGGGCAGAGCUCAACACAGCGUGACAAAGUGGCUGUGGCUAGACUGCCUCUCUGGAUUCCCCGUCACUCAGCAGGGCAUCUCUGAGAGAAAUGCC [A24U G75A U112C], 1.19.
The result for UACGUAGGUGGUUUUCCCCUGAUUGUGCUAAGGGGGCCUGGAAGUUUGGACUGGGCAGAGCUCAAUACAGCGUGGCAAAGUGGCUGUGGCUAGACUGCCUCUCUGGAUUCCUCGUCACCCAGCAGGGCAUCUCUGAGAGAAAUGCC [A24U C66U U119C] reads 0.17.
On to UACGUAGGUGGUUUUCCCCUGAUGGUGCUAAGGGGGCCUGGAAGUUUGGACUGGGCAGAGCUCAACACAGCGUGGCAAAGUGGCUGUGGCUAGACUGCCUCUCUGGAUGCCUCGUCACUCAGCAGGGCAUCUCUGAGAGAAGUGCC [A24G U109G A142G], for which the self-cleavage stood at 1.58.
With UACGUAGGUGGUUUUCCCCUGAUUGUGCUAAGGGGGCCUGGAAGCUUGGACUGGGCAGAGCUCAACGCAGCGUGGCAAAGUGGCUGUGGCUAGACAGCCUCUCUGGAUUCCUCGUCACUCAGCAGGGCAUCUCUGAGAGAAAUGCC [A24U U45C A67G U96A], the self-cleavage amounted to 0.66.
The result for UACGUAGGUGGUUUUCCCCUGAUGGUGCUAAGGGGGCCUGGAAGUUUGGACUGGGCAGAGCUCAACACAGCGUGGCAAAGUGGCUGCGGCUAGACUGCCUCUCUGGAUUCCUCGUCACUCAGCAGGGCAUCUCUGGGAGAAAUGCC [A24G U87C A136G] reads 0; that for UACGUAGGUGGUUUUCCCCUGAUUGUGCUAAGGGGGCCUGGGAGUUUGGACUGGGCAGAGCUCAACACAGCGUGGCAAAGUGGCUGUGGCUAGACUGCCUCUCUGGAUUCCUCGUCACUCAGCAGGGCAUCUCUGAGGGAAAUGCC [A24U A42G A138G], 0.66; that for UACGUAGGUGGUUUUCCCCUGAUUGUGCUAAGGGGGCCUGGUAGUUUGGACCGGGCAGAGCUCAACACAGCGUGGCAAAGUGGCUGUGGCUAGACUGCCUCUCUGGAUUCCUCGUCACUCAGCAGGGCAUCUCUGAGAGAAAUGCC [A24U A42U U52C], 0.51.
In the case of UACGUAGGUGGUUUUCCCCUGAUUGUGCUGAGGGGGCCUGGAAGUUUGGACUGGGCAGAGCUCAACACAGCGUGGCAAAGUGGCUGUGGCUAGACUGCCACUCUGGAUUCCUCGUCACUCAGCAGGGCAUCUCUGAGAGAAAUGCC [A24U A30G U100A], the self-cleavage was determined as 1.01.
The result for UACGUAGGUGGUUUUCCCCUGAUUGUGCUAAGGGGGCCUGGAAGUUUGGACUGGGCAGAGCUCAACACAGCGUGGUAAAGUGGCUGCGGCUAGACUGCCUCUCUGGAUUCCUCGCCACUCAGCAGGGCAUCUCUGAGAGAAAUGCC [A24U C76U U87C U115C] reads 0.54; that for UACGUAGGUGGUUUUCCCCUGAUUGUGCUGAGGGGGCCUGGAAGUUUGGACUGGGCAGAGCUCAACACAGCGUGGCAAAGUGGCUGUGGCUAGACUGCCUCUCUGGAUUCUUCGUCACUCAGCAGGGCAUCUCUGAGAGAAAUGCC [A24U A30G C111U], 1.13.
